Columns and labels:
[1] = target: T1, properdin bound C3b (human, UniProt P01024 23-667; P01024 part only, limits assumed); assay: ELISA, factor B on plate-bound C3b with or without properdin (FIG. 17)
T1 construct: domain: C3b; Complex made on the plate: 5 nM properdin incubated 1 hour on C3b coated wells, then washed; also called PC3b; properdin C3b complex

[2] = target: T2, human iC3b (human, UniProt P01024 23-667; P01024 749-1303; P01024 1321-1663, limits assumed); assay: ELISA, factor B on plate-bound C3 fragments
T2 construct: domain: iC3b

[3] = target: T3, human C3c (human, UniProt P01024 23-667; P01024 749-954; P01024 1321-1663, limits assumed); assay: ELISA, factor B on plate-bound C3 fragments
T3 construct: domain: C3c

B1: factor B (enzyme, UniProt P00751 26-764, looked up)
chain: TPWSLARPQGSCSLEGVEIKGGSFRLLQEGQALEYVCPSGFYPYPVQTRTCRSTGSWSTLKTQDQKTVRKAECRAIHCPRPHDFENGEYWPRSPYYNVSDEISFHCYDGYTLRGSANRTCQVNGRWSGQTAICDNGAGYCSNPGIPIGTRKVGSQYRLEDSVTYHCSRGLTLRGSQRRTCQEGGSWSGTEPSCQDSFMYDTPQEVAEAFLSSLTETIEGVDAEDGHGPGEQQKRKIVLDPSGSMNIYLVLDGSDSIGASNFTGAKKCLVNLIEKVASYGVKPRYGLVTYATYPKIWVKVSEADSSNADWVTKQLNEINYEDHKLKSGTNTKKALQAVYSMMSWPDDVPPEGWNRTRHVIILMTDGLHNMGGDPITVIDEIRDLLYIGKDRKNPREDYLDVYVFGVGPLVNQVNINALASKKDNEQHVFKVKDMENLEDVFYQMIDESQSLSLCGMVWEHRKGTDYHKQPWQAKISVIRPSKGHESCMGAVVSEYFVLTAAHCFTVDDKEHSIKVSVGGEKRDLEIEVVLFHPNYNINGKKEAGIPEFYDYDVALIKLKNKLKYGQTIRPICLPCTEGTTRALRLPPTTTCQQQKEELLPAQDIKALFVSEEEKKLTRKEVYIKNGDKKGSCERDAQYAPGYDKVKDISEVVTPRFLCTGGVSPYADPNTCRGDSGGPLIVHKRSRFIQVGVISWGVVDVCKNQKRQKQVPAHARDFHINLFQVLPWLKEKLQDEDLGFL
fold difference in affinity (properdin bound C3b against C3b alone) [1]: 20 to 30 fold | binding result [2]: no binding | binding result [3]: no binding

Source: patent US20110008340A1 (published 2011)
